Measured values reported in PubChem BioAssay AID651820 (National Center for Advancing Translational Sciences (NCATS), 2012).
Out of some 340,000 compounds screened, about 12,000 (3.5%) were called active. The shares of active, inactive and inconclusive entries below differ from those in the screen. The call rests on the fitted dose curve; in most records, active means well fitted inhibition curve with a large enough effect; inconclusive means small, poorly fitted or top-dose-only effect, or another doubt; inactive means no such curve, though single readings can be large or run the other way. Potencies of inconclusive entries are left out as doubtful fits.

assay: qHTS Assay for Inhibitors of Hepatitis C Virus (HCV); details: Huh7.5.1 HCVcc-Cre (HCVcc is cell-culture hepatitis C virus) infection, luciferase reporter, 44 h; activity change, negative = inhibition: at 41.8 µM (top of the series) unless noted
Summary of the method: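 Luciferase read-out (15 sec integration) after a 15 min room-temperature substrate step quantifies HCVcc-Cre infection. Cells, 1,000 per well, had compound added 4 h post-plating, then virus at ~0.5 moi, and were cultured 44 h.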
On the % scale 0 is the no-effect control and ±100 the full control effect; potency means the concentration at half of the fitted maximal effect; tags describe the fitted curve by direction and shape.

SMILES	activity change, negative = inhibition	Potency
Cc1ccc(NC(=O)c2ccc(OC(=O)COc3cccc(Cl)c3)cc2)cc1	inactive: -7.75%	–
Cc1ccc(NC(=S)N2CCCC(c3nc4ccccc4[nH]3)C2)cc1 (configuration not stated)	–	active: 2.51 µM
COc1ccc(C(c2nnnn2Cc2ccccc2)N2CCN(C(=O)c3ccco3)CC2)cc1OC (configuration not stated)	inactive: -0.555%	–
O=C1CC(Sc2nnc(-c3ccccc3)o2)C(=O)N1c1ccccc1 (configuration not stated)	–	inconclusive [inhibitor, single point]
CCc1cc2c(N3CCN(C(=O)c4ccco4)CC3)ncnc2s1	–	inconclusive [inhibitor, single point]
Cc1ccc(S(=O)(=O)Cn2nnnc2C(C(C)C)N2CCN(c3nc4ccccc4s3)CC2)cc1 (configuration not stated)	–	inconclusive [inhibitor, partial curve]
CCOc1ccc(S(=O)(=O)NC(C)(C)C)cc1-c1nc2c(C(C)(C)C)nn(C)c2c(=O)[nH]1	–	active: 7.08 µM
CCC(=NCCc1ccccc1)c1c(O)[nH]c(=O)[nH]c1=O	–	active: 0.316 µM
CC(C)(C)c1ccc(Oc2ccc(N)cn2)cc1	–	active: 3.98 µM
Cc1cccc(C2=NN(c3ccccc3)[C@H](CO)[C@H]2c2ccc(Cl)cc2)c1	–	inconclusive [inhibitor, partial curve]
O=S(=O)(c1ccc(-c2csc(Nc3ccc(F)cc3)n2)cc1)N1CCCC1	–	inconclusive [inhibitor, partial curve]
COc1ccccc1CNC(=O)c1cc2c(C)nn(Cc3ccc(F)cc3)c2s1	–	active: 7.08 µM
COc1cccc(CC2(CO)CCCN(Cc3sc(N4CCCC4)nc3Cl)C2)c1 (configuration not stated)	–	inconclusive [inhibitor, partial curve, poor fit]
COc1ccc(-c2cc(C(=O)NC3CCCC3)c3ccccc3n2)cc1OC	inactive: -26.7%	–
N#Cc1ccc(-c2csc(NC(=O)c3cc(-c4cccs4)nc4ccccc34)n2)cc1	–	inconclusive [inhibitor, partial curve, poor fit]
O=C(NCc1cccnc1)c1cc(S(=O)(=O)N2CCCC2)c(Cl)cc1Cl	–	inconclusive [inhibitor, single point]
COc1ccc(Cc2nc3ccc(C(=O)NCC4COCCO4)cc3o2)cc1OC (configuration not stated)	inactive: -2.53%	–
CCN1C(=S)SC(=O)C1=C1C=C(C)N(Cc2ccco2)C(C)=C1	–	inconclusive [inhibitor, partial curve, poor fit]
Nn1cnc2c([nH]c3ccccc32)c1=O	inactive: 23.7%	–
O=c1c2ccccc2[nH]c(=S)n1-c1ccc(Br)cc1	inactive: -0.79%	–
CC1Cc2cc(S(=O)(=O)N3CCC(C(=O)N(C)Cc4ccccc4)CC3)ccc2N1C(=O)C1CC1 (configuration not stated)	–	active: 5.62 µM
Cn1c(=O)[nH]c(=O)c2c1nc(SCCN1CCCCC1)n2Cc1ccccc1	inactive: 8.81%	–
CC(NC(=O)c1cccs1)c1ccc(Br)cc1 (configuration not stated)	inactive: -0.0574%	–
Cc1cccc(OCC(=O)Nc2cc(C)ccc2O)c1	–	inconclusive [inhibitor, partial curve]

SMILES	activity change, negative = inhibition	Potency
CC(c1ccccc1)n1c(CCCO)nc2ccccc21 (configuration not stated)	–	inconclusive [inhibitor, single point]
COc1cc(C)c(-c2nc(CN3C[C@@H]4C[C@@H](C3)c3cccc(=O)n3C4)c(C)o2)cc1C	–	inconclusive [inhibitor, full curve]
COC(=O)c1ccc(OC)c(CSc2nnc(-c3ccc(C(C)(C)C)cc3)o2)c1	–	inconclusive [inhibitor, single point]
CC1=C(C(=O)OCc2ccc3c(c2)OCO3)C(c2ccc(O)c([N+](=O)[O-])c2)NC(=O)N1 (configuration not stated)	inactive: -13.7%	–
Cc1cccc2sc(N3CCN(C(=O)C4COc5ccccc5O4)CC3)nc12 (configuration not stated)	–	inconclusive [inhibitor, partial curve]
COc1ccc(NC(=O)C(C)SCc2ccccc2)cc1OC (configuration not stated)	–	inconclusive [inhibitor, full curve]
Cc1nc(SCC(=O)c2cccs2)c2oc3ccccc3c2n1	–	inconclusive [inhibitor, partial curve, poor fit]
COc1ccc(Cl)c2c1[nH]c1nc(SCc3ccccn3)nnc12	–	inconclusive [inhibitor, single point]
COc1ccc(N=Cc2c(O)n(-c3cccc(C)n3)c(=O)c3ccccc23)cc1	inactive: -20%	–
COC(=O)c1ccc(S(=O)(=O)N2CCCN(Cc3ccccc3)CC2)n1C	inactive: -9%	–
Cc1c(C(=O)NCCCN2CCOCC2)sc2nc(-c3ccc(F)cc3)cn12	–	active: 10 µM
CCOC(=O)CC(=O)CSc1nc(-c2cccnc2)cc(C)c1C#N	inactive: 3.18%	–
Nc1ccc(N=Nc2ccccc2)c2cccnc12	–	active: 2.51 µM
Cc1nc2cc(NS(=O)(=O)c3ccccc3)ccc2n1C	inactive: -1.35%	–
CN(C(=O)COC(=O)c1cc(=O)[nH]c2ccccc12)c1c(N)n(Cc2ccccc2)c(=O)[nH]c1=O	inactive: -17.1%	–
CCOC(=O)C1=C(C)N=c2s/c(=C\c3ccc(OCC(=O)O)cc3)c(=O)n2C1c1ccc(Cl)cc1 (configuration not stated)	–	inconclusive [inhibitor, single point]
O=C(Nc1ccc(N=Nc2ccccc2)c(NC(=O)C2CCCO2)c1)C1CCCO1 (configuration not stated)	–	active: 2 µM
CCCc1ccccc1OCCNS(=O)(=O)c1cc2c(cc1C)OCC(=O)N2	–	inconclusive [inhibitor, single point]
Cc1nn(-c2ccccc2)c(N2CCCC2)c1/C=N/NC(=S)Nc1cc(C(F)(F)F)ccc1Cl	–	inconclusive [inhibitor, full curve]
COc1ccc(CN2CCC(CNS(=O)(=O)c3cccc(C(F)(F)F)c3)CC2)cc1	–	active: 11.2 µM
Cc1ccc(NC(=O)/C=C/c2ccc(S(=O)(=O)N3CCOCC3)cc2)cc1S(=O)(=O)N(C)C	–	inconclusive [inhibitor, full curve, poor fit]
CCCc1nc2oc3c(NCCOCCO)ncnc3c2c2c1COC(C)(C)C2	inactive: -13.3%	–
Cc1ccc(S(=O)(=O)NCc2ccc(C(=O)N3CCN(c4ccc([N+](=O)[O-])cc4)CC3)cc2)cc1	–	active: 3.98 µM
COC(=O)c1cc2ccsc2n1CC(=O)Nc1ccc(N(C)C)cc1	–	inconclusive [inhibitor, full curve, poor fit]

SMILES	activity change, negative = inhibition	Potency
O=C(Nc1ccnn1C1CCN(C(=O)c2c(F)cccc2F)CC1)C1CC1	inactive: 18.6%	–
COc1cccc(NC2SC(=O)N(c3ccccc3)C2=O)c1 (configuration not stated)	inactive: 4.44%	–
CCc1c(C)nc2ncnn2c1N1CCC(C(=O)Nc2ccccc2)CC1	–	inconclusive [inhibitor, partial curve]
O=C(Nc1ccc(Cl)c(S(=O)(=O)N2CCCCC2)c1)C1=COCCO1	–	inconclusive [inhibitor, single point]
Cc1oc(-c2ccc(Cl)cc2)nc1CSCC(=O)NCCCN1CCOCC1	–	inconclusive [inhibitor, partial curve]
c1ccc(-c2ccc(Oc3cc(N4CCOCC4)nc(-c4ccccc4)n3)cc2)cc1	–	inconclusive [inhibitor, single point]
CN=C1S/C(=C/c2cn(CC(=O)OC)c3ccccc23)C(=O)N1C	–	inconclusive [inhibitor, single point]
Cc1nnc(SCC(=O)Nc2ccccc2)c2ccccc12	inactive: -2.41%	–
CCOc1ccc(CCNC(=O)c2ccc(CS(=O)Cc3ccccc3Cl)o2)cc1 (configuration not stated)	–	inconclusive [inhibitor, single point]
Cc1ccc(CCNC(=O)CS(=O)Cc2nc(-c3ccccc3F)oc2C)cc1 (configuration not stated)	inactive: -6.46%	–
COc1ccc(C)cc1NC(=O)C1CCCN(S(=O)(=O)c2ccc(-n3cnnn3)cc2)C1 (configuration not stated)	–	inconclusive [inhibitor, partial curve]
COc1ccc(S(=O)(=O)NCC(c2ccc(F)cc2)N2CCN(C)CC2)cc1 (configuration not stated)	–	inconclusive [inhibitor, partial curve, poor fit]
O=C(N/N=C/c1ccccc1O)C1CC(=O)N(c2ccc(Cl)cc2)C1 (configuration not stated)	–	inconclusive [inhibitor, partial curve]
CCN(Cc1ccccc1)S(=O)(=O)c1cc(C(=O)NC(C)C2CC3CCC2C3)ccc1OC (configuration not stated)	–	active: 11.2 µM
Cc1cc(NC2CCCC2)n2ncc(-c3ccccc3)c2n1	–	inconclusive [inhibitor, partial curve]
COc1cc(NCc2ccccc2)c2ncn(Cc3ccccc3)c2c1	–	inconclusive [inhibitor, partial curve]
CCOc1ccccc1Nc1nc2ccc(C)cc2n2cnnc12	inactive: -24.7%	–
S=C1NC[C@H](c2ccccc2)N1CC1CCCCC1	–	inconclusive [inhibitor, partial curve]
CCCOC(=O)c1cccc(Nc2nc(-c3cccnc3)nc3ccccc23)c1	–	inconclusive [inhibitor, partial curve]
COc1cc(OC)c(OC)cc1/C=C1\CC(C)C/C(=C\c2cc(OC)c(OC)cc2OC)C1=O (configuration not stated)	–	inconclusive [inhibitor, full curve]
C/C(=N\Nc1nc2ccccc2[nH]1)c1ccc(C)o1	inactive: 7.2%	–
Cc1cnc(NC(=O)C2CC(=O)N(c3cccc(Cl)c3)C2)s1 (configuration not stated)	–	active: 3.16 µM
Oc1ccccc1N=Cc1c(O)ccc2oc3c(c12)CCCC3	–	inconclusive [inhibitor, partial curve]
Cc1cccc(-n2c(C)cc(/C=N/NC(=O)c3ccc(CN4CCOCC4)cc3)c2C)c1	–	active: 10 µM
